# By IC50 is meant the dose at which the fit gives 50% viability; where the fit passes the top or lowest dose, that dose stands as a limit. For AUC the same curve is integrated over the 256-fold range of doses and scaled to a fraction; the more sensitive the line, the further below 1. For some assays here: An inferred top dose comes from the curve model; the source does not state it.
# Columns and labels:
# Assay in all cases: Viability of human cancer cell lines after 72 h of drug (GDSC screen)
# Obatoclax mesylate = compound: COC1=CC(c2cc3ccccc3[nH]2)=N/C1=C\c1[nH]c(C)cc1C [Obatoclax mesylate]; conditions: top dose 16 µM
# Protocol: (§1)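 Human cancer cell lines in 384-well plates, medium with 10% serum, drug for 72 h over a 256-fold dose range (nine 2-fold or five 4-fold steps up to the top dose). Adherent lines were fixed and stained with the nucleic acid dye Syto60, suspension lines read with resazurin; signal relative to control wells, capped at 0 and 100%. One two-parameter sigmoid per drug and line, fitted in a mixed model over all curves with the slope shared within a line.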
# STF-62247 = compound: Cc1cccc(Nc2nc(-c3ccncc3)cs2)c1 [STF-62247]; conditions: top dose 10.24 µM; top dose inferred
# Protocol: as §1
# CX-5461 = compound: Cc1cnc(CNC(=O)c2c(=O)c3ccc(N4CCCN(C)CC4)nc3n3c2sc2ccccc23)cn1 [CX-5461]; conditions: top dose 10.24 µM; top dose inferred
# Protocol: as §1
# CP724714 = compound: COCC(=O)NC/C=C/c1ccc2ncnc(Nc3ccc(Oc4ccc(C)nc4)c(C)c3)c2c1 [CP724714]; conditions: top dose 10.24 µM; top dose inferred
# Protocol: as §1
# Bortezomib = compound: CC(C)C[C@H](NC(=O)[C@H](Cc1ccccc1)NC(=O)c1cnccn1)B(O)O [Bortezomib]; conditions: top dose 0.02 µM
# Protocol: as §1
# Paclitaxel = compound: CC(=O)O[C@H]1C(=O)[C@@]2(C)[C@H]([C@H](OC(=O)c3ccccc3)[C@]3(O)C[C@H](OC(=O)[C@H](O)[C@@H](NC(=O)c4ccccc4)c4ccccc4)C(C)=C1C3(C)C)[C@]1(OC(C)=O)CO[C@@H]1C[C@@H]2O [Paclitaxel]; conditions: top dose 0.1024 µM
# Protocol: as §1
Cell Line,AUC (Obatoclax mesylate),IC50 (Obatoclax mesylate),AUC (STF-62247),IC50 (STF-62247),AUC (CX-5461),IC50 (CX-5461),AUC (CP724714),IC50 (CP724714),AUC (Bortezomib),IC50 (Bortezomib),AUC (Paclitaxel),IC50 (Paclitaxel)
"BC-1 (B-cell lymphoma, suspension)",0.128,87.4 nM,0.956,> 10200 nM,0.845,5830 nM,0.938,> 10200 nM,0.61,2.39 nM,–,–
"CAL-148 (breast, suspension)",0.519,1120 nM,0.989,> 10200 nM,0.624,1370 nM,0.986,> 10200 nM,0.938,> 20 nM,–,–
"CCRF-CEM (lymphoblastic leukaemia, suspension)",0.073,< 62.5 nM,0.971,> 10200 nM,0.256,148 nM,0.979,> 10200 nM,0.426,0.811 nM,–,–
"D-392MG (glioma, adherent)",0.547,1400 nM,0.965,> 10200 nM,0.965,> 10200 nM,0.978,> 10200 nM,0.504,1.29 nM,–,–
"D-542MG (glioma, adherent)",0.296,231 nM,0.984,> 10200 nM,0.984,> 10200 nM,0.974,> 10200 nM,0.323,0.357 nM,–,–
"DMS-114 (small cell lung carcinoma, adherent)",0.563,1530 nM,0.977,> 10200 nM,0.985,> 10200 nM,0.968,> 10200 nM,0.805,11.9 nM,–,–
"DU-4475 (breast, suspension)",0.204,168 nM,0.97,> 10200 nM,0.469,537 nM,0.963,> 10200 nM,0.513,1.35 nM,–,–
"ECC12 (stomach, suspension)",–,–,–,–,–,–,–,–,0.525,1.49 nM,–,–
"ES-2 (ovary, adherent)",0.293,285 nM,0.991,> 10200 nM,0.642,1500 nM,0.976,> 10200 nM,0.564,1.83 nM,–,–
"EVSA-T (breast, adherent)",0.455,766 nM,0.975,> 10200 nM,0.983,> 10200 nM,0.989,> 10200 nM,0.651,3.05 nM,–,–
"EW-12 (Ewing sarcoma, suspension)",–,–,–,–,–,–,–,–,0.881,> 20 nM,0.978,> 102 nM
"EW-22 (Ewing sarcoma, adherent)",–,–,–,–,–,–,–,–,0.966,> 20 nM,–,–
"HCC2218 (breast, suspension)",0.623,2390 nM,0.967,> 10200 nM,0.902,> 10200 nM,0.308,160 nM,0.844,> 20 nM,–,–
"HCC2998 (large intestine, adherent)",0.067,< 62.5 nM,0.985,> 10200 nM,0.953,> 10200 nM,0.988,> 10200 nM,0.344,0.468 nM,–,–
"JAR (urogenital system, adherent)",0.943,> 16000 nM,0.975,> 10200 nM,0.988,> 10200 nM,0.974,> 10200 nM,0.836,12.9 nM,–,–
"JURL-MK1 (chronic myeloid leukaemia, suspension)",0.506,1040 nM,0.942,> 10200 nM,0.822,5930 nM,0.969,> 10200 nM,0.635,2.95 nM,–,–
"K-562 (chronic myeloid leukaemia, suspension)",0.581,1650 nM,–,–,0.929,> 10200 nM,0.959,> 10200 nM,0.764,–,–,–
"KGN (ovary, adherent)",0.299,239 nM,0.96,> 10200 nM,0.319,177 nM,0.98,> 10200 nM,0.569,2.02 nM,–,–
"KURAMOCHI (ovary, adherent)",0.136,< 62.5 nM,0.982,> 10200 nM,0.977,> 10200 nM,0.977,> 10200 nM,0.511,1.34 nM,–,–
"LS-1034 (large intestine, adherent)",0.456,750 nM,0.907,> 10200 nM,0.834,7670 nM,0.986,> 10200 nM,0.841,16.1 nM,–,–
"MOLT-4 (lymphoblastic leukaemia, suspension)",0.1,73 nM,0.928,> 10200 nM,0.169,83.5 nM,0.986,> 10200 nM,0.44,0.888 nM,–,–
"NB12 (neuroblastoma, adherent)",0.443,662 nM,0.98,> 10200 nM,0.62,1540 nM,0.951,> 10200 nM,0.554,1.85 nM,–,–
"NB-4 (acute myeloid leukaemia, suspension)",0.07,< 62.5 nM,0.972,> 10200 nM,0.47,539 nM,0.967,> 10200 nM,0.712,4.34 nM,–,–
"NCI-H23 (lung adenocarcinoma, adherent)",0.793,7230 nM,0.983,> 10200 nM,0.977,> 10200 nM,0.987,> 10200 nM,0.798,9.41 nM,–,–
"NCI-H69 (small cell lung carcinoma, suspension)",0.673,3220 nM,0.923,> 10200 nM,0.979,> 10200 nM,0.981,> 10200 nM,0.543,1.66 nM,–,–

Cell Line,AUC (Obatoclax mesylate),IC50 (Obatoclax mesylate),AUC (STF-62247),IC50 (STF-62247),AUC (CX-5461),IC50 (CX-5461),AUC (CP724714),IC50 (CP724714),AUC (Bortezomib),IC50 (Bortezomib),AUC (Paclitaxel),IC50 (Paclitaxel)
"NCI-H82 (small cell lung carcinoma, suspension)",0.603,1880 nM,0.983,> 10200 nM,0.93,> 10200 nM,0.985,> 10200 nM,0.687,4.05 nM,–,–
"NCI-H187 (small cell lung carcinoma, suspension)",0.669,3080 nM,0.983,> 10200 nM,0.705,2560 nM,0.985,> 10200 nM,0.912,> 20 nM,–,–
"NCI-H209 (small cell lung carcinoma, suspension)",0.692,3610 nM,0.978,> 10200 nM,0.985,> 10200 nM,0.968,> 10200 nM,0.854,17.5 nM,–,–
"NCI-H446 (small cell lung carcinoma, semi-adherent)",0.494,962 nM,0.984,> 10200 nM,0.694,2350 nM,0.985,> 10200 nM,0.645,3.26 nM,–,–
"NCI-H526 (small cell lung carcinoma, suspension)",0.648,2510 nM,0.974,> 10200 nM,0.87,8840 nM,0.978,> 10200 nM,0.717,4.97 nM,–,–
"NCI-H1299 (large cell lung carcinoma, adherent)",0.168,73.2 nM,0.981,> 10200 nM,0.981,> 10200 nM,0.981,> 10200 nM,0.949,> 20 nM,–,–
"NCI-H1417 (small cell lung carcinoma, suspension)",0.386,455 nM,0.973,> 10200 nM,0.784,5250 nM,0.919,> 10200 nM,0.726,6.31 nM,–,–
"NCI-H1876 (small cell lung carcinoma, adherent)",0.68,3200 nM,0.985,> 10200 nM,0.762,3710 nM,0.971,> 10200 nM,0.83,12.8 nM,–,–
"NCI-H2227 (small cell lung carcinoma, semi-adherent)",0.769,6850 nM,0.986,> 10200 nM,0.895,> 10200 nM,0.981,> 10200 nM,0.764,8.17 nM,–,–
"RC-K8 (B-cell lymphoma, suspension)",0.494,964 nM,0.99,> 10200 nM,0.976,> 10200 nM,0.993,> 10200 nM,0.692,3.96 nM,–,–
"RKO (large intestine, adherent)",0.048,< 62.5 nM,0.972,> 10200 nM,0.512,688 nM,0.981,> 10200 nM,0.453,0.94 nM,–,–
"SK-MEL-2 (melanoma, adherent)",0.274,221 nM,0.987,> 10200 nM,0.978,> 10200 nM,0.983,> 10200 nM,0.951,> 20 nM,–,–
"SK-N-FI (neuroblastoma, adherent)",0.683,3250 nM,0.977,> 10200 nM,0.99,> 10200 nM,0.98,> 10200 nM,0.838,13.3 nM,–,–
"SR (lymphoid neoplasm, suspension)",0.107,63.2 nM,0.876,8400 nM,0.21,100 nM,0.946,> 10200 nM,0.566,1.85 nM,–,–
"SUP-B15 (lymphoblastic leukaemia, suspension)",0.051,< 62.5 nM,0.93,> 10200 nM,0.299,179 nM,0.976,> 10200 nM,–,–,0.631,14.4 nM
"SW982 (soft tissue, adherent)",0.38,462 nM,0.985,> 10200 nM,0.798,5040 nM,0.985,> 10200 nM,–,–,0.545,8.54 nM
"TC-YIK (cervix, suspension)",–,–,–,–,–,–,–,–,0.987,> 20 nM,–,–
"TE-11 (oesophagus, adherent)",0.321,334 nM,0.986,> 10200 nM,0.984,> 10200 nM,0.982,> 10200 nM,–,–,0.255,1.37 nM
"TGBC24TKB (biliary tract, adherent)",0.674,2940 nM,0.99,> 10200 nM,0.99,> 10200 nM,0.959,> 10200 nM,–,–,0.553,8.82 nM
"TK (B-cell lymphoma, suspension)",0.209,154 nM,0.983,> 10200 nM,0.933,> 10200 nM,0.99,> 10200 nM,0.551,1.7 nM,–,–
"U-87-MG (glioma, adherent)",0.641,2650 nM,0.976,> 10200 nM,0.951,> 10200 nM,0.984,> 10200 nM,0.848,18.9 nM,–,–
"UACC-812 (breast, adherent)",0.866,13400 nM,0.982,> 10200 nM,0.981,> 10200 nM,0.947,> 10200 nM,0.84,13.1 nM,–,–
"VAL (B-cell lymphoma, suspension)",0.161,91.3 nM,0.915,> 10200 nM,0.741,3140 nM,0.976,> 10200 nM,0.447,0.897 nM,–,–
"WSU-DLCL2 (B-cell lymphoma, suspension)",0.45,748 nM,0.993,> 10200 nM,0.993,> 10200 nM,0.966,> 10200 nM,–,–,0.885,79.2 nM
"WSU-NHL (lymphoid neoplasm, suspension)",0.1,< 62.5 nM,0.981,> 10200 nM,0.938,> 10200 nM,0.99,> 10200 nM,–,–,0.99,> 102 nM

# Reference: the supplement of paper PMC4967469
